Test results as given in paper PMC9632837.
These are yes or no findings as the source states them, for the method shown. Some results given as binding are weak or reduced against the parent protein; the word gives no strength.

What was measured:
Test in all cases: two-hybrid; Matchmaker Gold Yeast Two-Hybrid System; pGBKT7 baits and pGADT7 preys co-transformed into Y2HGold cells; transformants from SD-Leu-Trp restreaked onto SD-Leu-Trp-His-Ade plates
[1] = molecular target: T1, LIN-2A SH3 domain (C. elegans) (UniProt P54936)
T1 sequence: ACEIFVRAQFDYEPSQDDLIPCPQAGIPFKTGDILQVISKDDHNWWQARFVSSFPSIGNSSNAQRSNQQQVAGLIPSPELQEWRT

[2] = molecular target: T2, LIN-2A (LIN-2/CASK, long isoform), full length (C. elegans) (UniProt P54936)
T2 sequence: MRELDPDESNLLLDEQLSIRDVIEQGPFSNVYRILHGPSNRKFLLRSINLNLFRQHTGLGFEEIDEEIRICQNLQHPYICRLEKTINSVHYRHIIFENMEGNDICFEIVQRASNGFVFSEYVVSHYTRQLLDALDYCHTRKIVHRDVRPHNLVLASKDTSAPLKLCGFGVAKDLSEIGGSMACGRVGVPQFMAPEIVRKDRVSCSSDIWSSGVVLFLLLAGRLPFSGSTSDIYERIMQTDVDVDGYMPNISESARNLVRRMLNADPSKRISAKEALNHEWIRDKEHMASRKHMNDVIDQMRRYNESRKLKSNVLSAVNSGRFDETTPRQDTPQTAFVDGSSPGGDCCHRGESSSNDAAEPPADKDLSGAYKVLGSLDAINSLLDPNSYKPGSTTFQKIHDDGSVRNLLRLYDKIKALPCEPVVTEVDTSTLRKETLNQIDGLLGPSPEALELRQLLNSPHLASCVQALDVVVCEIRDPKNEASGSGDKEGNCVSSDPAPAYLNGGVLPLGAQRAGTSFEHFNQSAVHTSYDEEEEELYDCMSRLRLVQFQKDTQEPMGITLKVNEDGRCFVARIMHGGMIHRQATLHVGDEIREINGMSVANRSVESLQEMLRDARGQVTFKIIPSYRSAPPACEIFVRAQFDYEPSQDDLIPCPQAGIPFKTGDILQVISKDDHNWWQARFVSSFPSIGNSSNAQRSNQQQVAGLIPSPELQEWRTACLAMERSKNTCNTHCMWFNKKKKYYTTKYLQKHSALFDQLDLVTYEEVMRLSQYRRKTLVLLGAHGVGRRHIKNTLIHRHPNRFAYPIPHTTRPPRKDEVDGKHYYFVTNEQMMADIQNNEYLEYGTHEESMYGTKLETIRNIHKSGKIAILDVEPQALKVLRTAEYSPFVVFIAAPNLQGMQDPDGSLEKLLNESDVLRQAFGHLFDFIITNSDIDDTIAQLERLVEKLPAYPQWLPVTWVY

[3] = molecular target: T3, LIN-2A PDZ domain (C. elegans) (UniProt P54936)
T3 sequence: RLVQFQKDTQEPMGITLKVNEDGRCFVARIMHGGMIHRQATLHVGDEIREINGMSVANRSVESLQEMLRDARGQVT

B1: ACR-16 second cytoplasmic loop, TM3-4 (aa315-472) (domain or fragment, UniProt P48180 315-472)
chain: NLHYRTPETHDMGPWTRNLLLYWIPWILRMKRPGHNLTYASLPSLFSTKPNRHSESLIRNIKDNEHSLSRANSFDADCRLNQYIMTQSVSNGLTSLGSIPSTMISSNGTTTDVSQQATLLILHRIYHELKIVTKRMIEGDKEEQACNNWKFAAMVVDR
- binding [1]: binds
- binding [2]: binds
- binding [3]: no binding

B2: UNC-29 second cytoplasmic loop, TM3-4 (aa318-445) (domain or fragment, UniProt P48181 318-445)
chain: YFRGPRTHRMPQWVRVVFLQFLPKLVCMKRPKSASERSAVRSGMAQLPGVGQFTLSPSAHHPLCPSADDRTTTIRNTASNETSAYYPLSTDALRAIDAIEYITEHLKRDEQHKSFRDDWKYVAMIIDR
- binding [1]: binds
- binding [2]: binds
